Data reported in PubChem BioAssay AID540317 (National Center for Advancing Translational Sciences (NCATS), 2011).
Screen size: about 390,000 compounds; about 2,200 (0.56%) were called active. Inconclusive results, whose numbers are uncertain, are shown with a selection of clear calls. Calls follow the shape of the dose curve; as a rule, active = well fitted inhibition curve with a large enough effect; inconclusive = small, poorly fitted or top-dose-only effect; inactive = no such curve, though single readings can be large or run the other way. A potency beside an inconclusive call is a rough fit, not a confirmed value.

Target: Chromobox protein homolog 1 (Homo sapiens) (UniProt P83916)
UniProt P83916, sequence (P83916 whole entry, looked up): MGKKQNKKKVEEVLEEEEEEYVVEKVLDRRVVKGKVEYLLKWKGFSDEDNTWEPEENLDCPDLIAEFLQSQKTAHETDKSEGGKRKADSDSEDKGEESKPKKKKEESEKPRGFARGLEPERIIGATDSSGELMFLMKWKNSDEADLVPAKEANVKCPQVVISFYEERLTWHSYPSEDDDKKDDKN
Assay: HTS for Inhibitors of HP1-beta Chromodomain Interactions with Methylated Histone Tails; also: nearly all actives have a fitted effect of over 70% in size
Conditions: AlphaScreen HP1-beta / biotin-H3K9me3 peptide binding; series mostly up to 114 µM
Method in brief: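 HP1-beta protein (50 nM final) preincubated 30 min at room temperature with biotinylated H3(1-18)K9me3 peptide (50 nM) in PBS pH 7.4, 0.01% Tween-20, then compound added for 30 min. AlphaScreen streptavidin donor/nickel chelate acceptor beads (10 ug/mL final), 30 min dark, luminescence read.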
Potency is read from the fitted curve at half-maximal effect; tags tell the direction and shape of the fitted curve.

Row | Compound | Potency
1 | O=C(CCC(=O)N(CC(=O)NC1CCCC1)c1cccc(F)c1)Nc1nccs1 | inactive
2 | COc1ccc2c(C)cc(=S)[nH]c2c1 | inactive
3 | COc1ccccc1NC(=O)COC(=O)c1cc2c(s1)CCC2 | inconclusive: 50.1 µM [inhibitor, partial curve, poor fit]
4 | CC/C(=N\N=C(/CC)c1ccccc1N)c1ccccc1N | inconclusive: 35.5 µM [inhibitor, partial curve, poor fit]
5 | COc1ccc(N2C(=O)C(Cl)=C(Oc3cccc(OC)c3)C2=O)cc1 | inconclusive: 12.6 µM [inhibitor, partial curve]
6 | COc1ccc(OC)c(-c2csc(N(CC3CCCO3)C(=O)C3CCCCC3)n2)c1 (centres undefined) | inconclusive: 39.8 µM [inhibitor, partial curve, poor fit]
7 | CN=C(c1ccc(C)cc1)n1c(=S)nc(-c2ccc(C)cc2)n(C)c1=S | inconclusive: 39.8 µM [inhibitor, single point]
8 | C[n+]1ccccc1/C=C/c1ccc(C#N)cc1 | inconclusive: 79.4 µM [inhibitor, single point]
9 | COc1ccc(/C=C2\N=C(C)OC2=O)cc1OC(C)=O | inactive
10 | COc1cc(C(=O)NCCNC(=O)c2ccco2)cc(OC)c1OC | inconclusive: 35.5 µM [inhibitor, single point]
11 | COC(=O)Cn1c(C)c(/C=C/c2cc[n+](C)cc2)c2ccccc21 | inconclusive: 89.1 µM [inhibitor, single point]
12 | COc1cc(/C=C/C(=O)OCC(=O)Nc2ccc(S(=O)(=O)N3CCCC3)cc2)ccc1O | inactive
13 | O=[N+]([O-])c1cc([N+](=O)[O-])c(Oc2c(F)cc(F)cc2F)cc1NN1CCCCC1 | inconclusive: 11.2 µM [inhibitor, full curve]
14 | CN1CCN(c2ccc(NC(=O)c3ccc(-c4cccc([N+](=O)[O-])c4)o3)cc2)CC1 | inconclusive: 50.1 µM [inhibitor, partial curve]
15 | CCOC(=O)N/N=C/c1cc(OC)c(O)c(OC)c1 | inconclusive: 39.8 µM [inhibitor, single point]
16 | COc1cccc(CNC(=O)N2CCN(c3ccccc3)CC2)c1 | inactive
17 | CCOC(=O)CCCc1ccc(/C(C)=N/NC(N)=S)cc1 | inconclusive: 70.8 µM [inhibitor, partial curve]
18 | CN(C)S(=O)(=O)c1cccc(NC(=O)COC(=O)/C=C/c2ccc(Br)o2)c1 | inconclusive: 70.8 µM [inhibitor, partial curve]
19 | COc1ccc(-c2cc(C(=O)N3CCN(c4ccccc4OC)CC3)no2)cc1OC | inactive
20 | O=c1cc(CSc2n[nH]c(-c3ccccc3)n2)[nH]c2ccccc12 | inactive
21 | COc1ccc(C2(C(=O)Nc3ccc(OC)cc3OC)CCCC2)cc1 | inactive
22 | O=C1c2cccc3cccc(c23)C(=O)N1CCN1CCN(CC(O)COCc2ccc(Cl)cc2)CC1 (centres undefined) | inconclusive: 35.5 µM [inhibitor, partial curve]

Row | Compound | Potency
23 | COc1ccc(Br)cc1CNc1ccc(O)cc1 | inconclusive: 31.6 µM [inhibitor, single point]
24 | CC(=C/c1ccccc1)/C=N/n1c(-c2ccncc2)n[nH]c1=S | inconclusive: 39.8 µM [inhibitor, partial curve]
25 | COc1cccc(C(=O)CC(=O)C(=O)Nc2cc(OC)ccc2OC)c1 | inconclusive: 79.4 µM [inhibitor, partial curve, poor fit]
26 | Cc1ccc(C)c(N2CCN(C3=C(c4ccccc4)C(=O)c4ccccc43)CC2)c1 | inconclusive: 6.31 µM [inhibitor, full curve]
27 | O=C(CSc1nnc(C2COc3ccccc3O2)o1)N1CCCC1 (centres undefined) | inconclusive: 35.5 µM [inhibitor, partial curve]
28 | CCCn1c(NCc2ccc(N(CC)CC)cc2)nc2ccccc21 | inconclusive: 35.5 µM [inhibitor, partial curve]
29 | CN(C)/C=C/C=C1C(=O)CCCC1=O | inconclusive: 79.4 µM [inhibitor, single point]
30 | Cc1ccc(S(=O)(=O)NC2=C(N3CCN(Cc4ccccc4)CC3)C(=O)c3ccccc3C2=O)cc1 | active: 8.91 µM
31 | COc1ccc(OC)c(-c2c3cc(O)c(=O)cc-3oc3cc(O)c(O)cc23)c1 | inconclusive: 8.91 µM [inhibitor, full curve, poor fit]
32 | CCOc1ccc(C2CC(=O)Nc3cc4c(cc32)OCO4)cc1OC (centres undefined) | inactive
33 | Cc1ccc2nc(N(CCCN(C)C)C(=O)c3ccc4c(c3)CCCC4)sc2c1 | inconclusive: 20 µM [inhibitor, full curve]
34 | Cc1ccc(NC(=O)C(=O)NCC2CCN(C(=O)c3cccc([N+](=O)[O-])c3)CC2)cc1 | inconclusive: 39.8 µM [inhibitor, single point]
35 | S=c1[nH]nc(-c2ccccn2)n1/N=C/c1ccc(-c2ccccc2Cl)o1 | inconclusive: 28.2 µM [inhibitor, partial curve]
36 | CC(=O)NC(Cc1ccc(C)cc1)C(=O)NC1CCN(C(=O)NCc2ccccc2)CC1 (centres undefined) | inactive
37 | COc1cc(C(=S)N2CCCC2)cc(OC)c1O | inactive
38 | CCn1c(=S)[nH]c2c(=O)n(C)c(=O)n(C)c21 | inconclusive: 39.8 µM [inhibitor, single point]
39 | Cc1ccc(C(OCC(O)CNC(CO)C(O)c2ccc([N+](=O)[O-])cc2)c2ccccc2)cc1 (centres undefined) | inconclusive: 56.2 µM [inhibitor, partial curve, poor fit]
40 | C#CC[N+](C)(C)CCN1C(=O)C2C(c3ccccc3)C=CC(c3ccccc3)C2C1=O (centres undefined) | inconclusive: 44.7 µM [inhibitor, partial curve, poor fit]
41 | Cc1ccc(CN2COc3ccc4c(-c5ccccc5)cc(=O)oc4c3C2)cc1 | inactive
42 | CCOc1cc(C(=O)OCC(=O)NCc2ccco2)cc(OCC)c1OCC | inconclusive: 39.8 µM [inhibitor, partial curve]
43 | CCOC(=O)c1c(NC(=O)Cn2nc(C(F)(F)F)cc2C)sc(C)c1C | inactive
44 | CCCOc1ccc(C(=O)Nc2ccc(NC(=O)c3ccccc3)c(Br)c2)cc1 | inactive
